Experimental data reported in PMC6533336.
These are yes or no findings as the source states them, for the method shown. Binding seen in cells or lysates may run through a third protein. Some binding calls cover weakened binding; strength is not graded here.

Chains of the proteins cited; added tags and fusions are not shown.
UniProt Q61656: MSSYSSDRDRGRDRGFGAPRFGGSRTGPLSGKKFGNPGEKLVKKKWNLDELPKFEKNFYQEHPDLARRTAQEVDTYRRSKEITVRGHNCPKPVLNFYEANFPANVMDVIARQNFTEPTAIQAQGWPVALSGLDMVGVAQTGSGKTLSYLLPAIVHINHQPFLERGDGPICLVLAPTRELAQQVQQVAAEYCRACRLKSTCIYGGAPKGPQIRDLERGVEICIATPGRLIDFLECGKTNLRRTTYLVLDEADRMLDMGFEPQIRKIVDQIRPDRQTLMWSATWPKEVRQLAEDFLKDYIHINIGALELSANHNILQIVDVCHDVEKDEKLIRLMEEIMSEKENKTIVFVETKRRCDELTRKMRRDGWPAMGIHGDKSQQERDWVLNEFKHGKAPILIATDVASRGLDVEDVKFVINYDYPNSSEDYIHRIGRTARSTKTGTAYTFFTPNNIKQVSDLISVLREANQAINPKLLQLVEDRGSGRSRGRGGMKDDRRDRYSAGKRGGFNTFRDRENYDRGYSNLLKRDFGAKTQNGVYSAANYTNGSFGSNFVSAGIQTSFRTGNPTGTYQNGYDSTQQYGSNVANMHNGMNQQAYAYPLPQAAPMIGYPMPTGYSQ
UniProt P70372: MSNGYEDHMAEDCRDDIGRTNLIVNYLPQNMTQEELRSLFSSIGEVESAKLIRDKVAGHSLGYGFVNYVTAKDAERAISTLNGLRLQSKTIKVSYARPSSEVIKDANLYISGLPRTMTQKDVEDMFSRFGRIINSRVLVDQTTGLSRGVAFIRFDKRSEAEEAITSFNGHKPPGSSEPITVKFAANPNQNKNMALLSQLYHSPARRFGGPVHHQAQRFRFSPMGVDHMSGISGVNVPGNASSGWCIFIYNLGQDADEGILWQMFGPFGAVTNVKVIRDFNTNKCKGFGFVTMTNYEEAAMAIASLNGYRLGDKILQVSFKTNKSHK
UniProt Q9CPN8: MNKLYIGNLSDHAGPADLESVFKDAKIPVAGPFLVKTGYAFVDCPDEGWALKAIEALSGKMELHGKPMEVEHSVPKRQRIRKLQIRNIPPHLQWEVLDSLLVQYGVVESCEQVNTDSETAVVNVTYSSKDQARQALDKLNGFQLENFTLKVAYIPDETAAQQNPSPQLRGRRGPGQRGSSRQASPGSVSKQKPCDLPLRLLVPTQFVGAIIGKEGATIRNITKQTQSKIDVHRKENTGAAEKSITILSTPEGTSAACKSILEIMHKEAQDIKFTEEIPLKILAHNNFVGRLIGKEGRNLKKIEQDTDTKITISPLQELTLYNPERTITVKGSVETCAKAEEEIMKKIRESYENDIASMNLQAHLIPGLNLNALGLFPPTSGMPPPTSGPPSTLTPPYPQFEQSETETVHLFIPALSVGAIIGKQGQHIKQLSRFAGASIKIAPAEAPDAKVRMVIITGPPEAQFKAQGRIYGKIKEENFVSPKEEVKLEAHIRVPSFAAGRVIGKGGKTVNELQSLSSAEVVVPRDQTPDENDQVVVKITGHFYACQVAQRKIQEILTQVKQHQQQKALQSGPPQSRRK
UniProt Q9R210: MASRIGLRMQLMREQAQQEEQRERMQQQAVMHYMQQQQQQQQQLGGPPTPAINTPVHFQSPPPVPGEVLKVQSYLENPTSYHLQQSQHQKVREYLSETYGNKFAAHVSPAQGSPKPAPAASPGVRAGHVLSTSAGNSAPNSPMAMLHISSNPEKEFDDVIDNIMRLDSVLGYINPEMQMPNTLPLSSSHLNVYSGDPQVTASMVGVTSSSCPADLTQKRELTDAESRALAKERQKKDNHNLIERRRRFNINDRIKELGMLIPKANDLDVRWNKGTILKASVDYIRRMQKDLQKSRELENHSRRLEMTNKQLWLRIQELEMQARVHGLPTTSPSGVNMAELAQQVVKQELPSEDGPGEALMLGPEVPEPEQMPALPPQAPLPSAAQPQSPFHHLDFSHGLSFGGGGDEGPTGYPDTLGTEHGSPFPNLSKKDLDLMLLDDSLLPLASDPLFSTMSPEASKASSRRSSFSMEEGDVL
UniProt Q9CXY6: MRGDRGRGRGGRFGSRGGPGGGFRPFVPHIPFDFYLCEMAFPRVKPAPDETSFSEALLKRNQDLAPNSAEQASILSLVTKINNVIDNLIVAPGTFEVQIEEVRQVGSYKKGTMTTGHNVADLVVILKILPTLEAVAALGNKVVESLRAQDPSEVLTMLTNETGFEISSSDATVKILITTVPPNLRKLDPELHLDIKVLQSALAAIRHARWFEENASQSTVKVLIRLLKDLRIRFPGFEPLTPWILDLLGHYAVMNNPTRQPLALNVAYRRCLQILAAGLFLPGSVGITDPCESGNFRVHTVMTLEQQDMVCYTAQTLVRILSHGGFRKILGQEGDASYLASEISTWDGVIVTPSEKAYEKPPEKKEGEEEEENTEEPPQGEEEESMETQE
UniProt P29341: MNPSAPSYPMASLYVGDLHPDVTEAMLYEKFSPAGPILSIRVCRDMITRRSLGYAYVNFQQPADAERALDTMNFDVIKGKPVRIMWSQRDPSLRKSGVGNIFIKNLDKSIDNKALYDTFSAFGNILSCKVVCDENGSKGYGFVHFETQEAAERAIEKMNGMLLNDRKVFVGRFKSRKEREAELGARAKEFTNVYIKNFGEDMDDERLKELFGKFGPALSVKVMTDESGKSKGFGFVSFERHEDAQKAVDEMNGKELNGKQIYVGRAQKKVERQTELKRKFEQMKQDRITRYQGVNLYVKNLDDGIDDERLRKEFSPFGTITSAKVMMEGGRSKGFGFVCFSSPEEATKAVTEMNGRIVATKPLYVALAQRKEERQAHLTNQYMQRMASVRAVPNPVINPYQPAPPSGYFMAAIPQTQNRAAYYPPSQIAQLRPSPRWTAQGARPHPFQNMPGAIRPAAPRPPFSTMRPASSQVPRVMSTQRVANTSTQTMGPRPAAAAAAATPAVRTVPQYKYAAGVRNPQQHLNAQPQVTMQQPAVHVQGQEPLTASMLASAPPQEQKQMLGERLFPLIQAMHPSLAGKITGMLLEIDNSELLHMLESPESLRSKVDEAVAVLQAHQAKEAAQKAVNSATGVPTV

B1: SRSF3 (protein, UniProt P84104 1-164)
chain: MHRDSCPLDCKVYVGNLGNNGNKTELERAFGYYGPLRSVWVARNPPGFAFVEFEDPRDAADAVRELDGRTLCGCRVRVELSNGEKRSRNRGPPPSWGRRPRDDYRRRSPPPRRRSPRRRSFSRSRSRSLSRDRRRERSLSRERNHKPSRSFSRSRSRSRSNERK
B2: ILF3 (interleukin enhancer binding factor 3) (protein, UniProt Q9Z1X4 1-898)
chain: MRPMRIFVNDDRHVMAKHSSVYPTQEELEAVQNMVSHTERALKAVSDWIDEQEKGNSELSEAENMDTPPDDESKEGAGEQKAEHMTRTLRGVMRVGLVAKGLLLKGDLDLELVLLCKEKPTTALLDKVADNLAIQLTTVTEDKYEILQSVDDAAIVIKNTKEPPLSLTIHLTSPVVREEMEKVLAGETLSVNDPPDVLDRQKCLAALASLRHAKWFQARANGLKSCVIVIRVLRDLCTRVPTWGPLRGWPLELLCEKSIGTANRPMGAGEALRRVLECLASGIVMPDGSGIYDPCEKEATDAIGHLDRQQREDITQSAQHALRLAAFGQLHKVLGMDPLPSKMPKKPKNENPVDYTVQIPPSTTYAITPMKRPMEEDGEEKSPSKKKKKIQKKEEKADPPQAMNALMRLNQLKPGLQYKLISQTGPVHAPIFTMSVEVDGSNFEASGPSKKTAKLHVAVKVLQDMGLPTGAEGRDSSKGEDSAEESDGKPAIVAPPPVVEAVSNPSSVFPSDATTEQGPILTKHGKNPVMELNEKRRGLKYELISETGGSHDKRFVMEVEVDGQKFQGAGSNKKVAKAYAALAALEKLFPDTPLALEANKKKRTPVPVRGGPKFAAKPHNPGFGMGGPMHNEVPPPPNIRGRGRGGNIRGRGRGRGFGGANHGGGYMNAGAGYGSYGYSSNSATAGYSQFYSNGGHSGNAGGGGSGGGGGSSSYSSYYQGDSYNSPVPPKHAGKKPLHGGQQKASYSSGYQSHQGQQQPYNQSQYSSYGTPQGKQKGYGHGQGSYSSYSNSYNSPGGGGGSDYSYDSKFNYSGSGGRSGGNSYGSSGSSSYNTGSHGGYGTGSGGSSSYQGKQGGYSSQSNYSSPGSSQSYSGPASSYQSSQGGYSRNTEHSMNYQYR

Each molecule was assayed against DEAD box helicase 5 (DDX5) (mouse (endogenous in cultured murine undifferentiated spermatogonia)) (UniProt Q61656) (assay: co-IP; IP with Armenian hamster anti-PLZF (clone 13G10) or goat anti-DDX5 (Abcam ab10261), 10 ug antibody, protein G sepharose beads, western blot, IgG control; cultured wildtype murine undifferentiated spermatogonia).
For B1, the binding was “binds”. B2 was tested, and the binding was “binds”.

Target: DEAD box helicase 5 (DDX5) (mouse (endogenous in cultured murine undifferentiated spermatogonia)) (UniProt Q61656)
Assay: as above
Remark: another data set of the same source
ELAVL1 (from UniProt P70372 1-326) was tested, and the binding was “binds”. In the case of IGF2BP3 (from UniProt Q9CPN8 1-579), the binding is reported as “binds”. TFEB (from UniProt Q9R210 1-475) was tested, and the binding was “no binding”. With ILF2 (from UniProt Q9CXY6 1-390) the binding was “binds”. With PABP1 (from UniProt P29341 1-636) the binding was “binds”.
